Results: paper PMC4336329 (PLoS ONE, 2015)
Among all 310,000 compounds or so, about 14,000 (4.5%) showed an effect of 50% or more. The effect is printed as a negative number. This is one part of the list.

target: human ether-à-go-go-related gene (hERG) potassium channel (human, UniProt Q12809); assay: primary screen, population patch clamp on CHO cells stably expressing hERG
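Note: peak tail current of the secondary pulse compared with the same well before compound.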

Chain of human ether-à-go-go-related gene (hERG) potassium channel (Q12809 whole entry, looked up): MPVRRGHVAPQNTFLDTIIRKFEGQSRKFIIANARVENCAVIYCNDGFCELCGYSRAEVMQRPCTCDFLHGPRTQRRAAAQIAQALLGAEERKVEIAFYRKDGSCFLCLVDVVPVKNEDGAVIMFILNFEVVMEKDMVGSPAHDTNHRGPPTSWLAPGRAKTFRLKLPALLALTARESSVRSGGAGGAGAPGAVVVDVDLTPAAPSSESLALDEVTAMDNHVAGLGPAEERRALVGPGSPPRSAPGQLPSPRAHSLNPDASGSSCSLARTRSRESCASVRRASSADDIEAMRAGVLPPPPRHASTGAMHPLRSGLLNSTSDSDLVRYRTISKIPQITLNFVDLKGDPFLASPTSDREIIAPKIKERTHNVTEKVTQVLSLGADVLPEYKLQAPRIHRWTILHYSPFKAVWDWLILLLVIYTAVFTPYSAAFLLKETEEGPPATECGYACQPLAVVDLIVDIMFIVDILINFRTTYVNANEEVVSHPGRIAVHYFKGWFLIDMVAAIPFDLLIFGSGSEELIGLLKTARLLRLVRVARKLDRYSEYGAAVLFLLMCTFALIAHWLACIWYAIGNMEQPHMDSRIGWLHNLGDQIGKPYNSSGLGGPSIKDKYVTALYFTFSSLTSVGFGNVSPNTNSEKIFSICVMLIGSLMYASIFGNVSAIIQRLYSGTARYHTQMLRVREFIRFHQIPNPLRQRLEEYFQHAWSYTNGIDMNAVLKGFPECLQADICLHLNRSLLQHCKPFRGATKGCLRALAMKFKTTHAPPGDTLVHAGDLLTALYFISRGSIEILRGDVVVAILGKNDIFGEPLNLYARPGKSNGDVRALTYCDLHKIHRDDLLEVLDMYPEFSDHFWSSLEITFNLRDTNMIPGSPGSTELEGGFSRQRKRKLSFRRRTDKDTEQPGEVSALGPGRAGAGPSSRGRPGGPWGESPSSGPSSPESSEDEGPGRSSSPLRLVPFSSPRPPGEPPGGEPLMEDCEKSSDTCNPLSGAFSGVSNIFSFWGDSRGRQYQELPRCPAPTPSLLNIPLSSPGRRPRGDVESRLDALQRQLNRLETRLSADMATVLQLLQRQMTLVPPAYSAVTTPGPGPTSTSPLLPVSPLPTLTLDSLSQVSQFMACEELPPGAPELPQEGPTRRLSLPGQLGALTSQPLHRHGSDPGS

Row | Compound | hERG current change (%, negative = inhibition) at 10uM [%]
1 | CCOC(=O)/C=C1\CN(Cc2cc(OC)c(OC)c(OC)c2)S(=O)(=O)c2ccccc21 | -6.93
2 | O=C(Nc1ccc(Cl)cc1)Nc1ccccc1Sc1ncc([N+](=O)[O-])s1 | 15.4
3 | O=C(/C(=N/O)n1cncn1)c1ccccc1Cl | 12.9
4 | Cc1noc(/C=C/N(C)C)c1S(=O)(=O)N1CCCC(C(=O)NCc2cccs2)C1 (centres unmarked) | 1.93
5 | CN(C(=O)CSc1nnc(C(F)(F)F)n1N)C1CCS(=O)(=O)C1 (centres unmarked) | 7.42
6 | NNC(=O)COc1cccc(C(F)(F)F)c1 | 35.7
7 | CCC(=O)NC(=S)Nc1ccccc1C(=O)OC | 16.9
8 | CC1(C(=O)OCC(=O)Nc2ccccc2Cl)CC1(Cl)Cl (centres unmarked) | -15.3
9 | O=C(N/N=C/c1ccncc1)c1ccccc1 | 0.899
10 | CCOC(=O)c1cn2nc(Oc3ccc(C)cc3)ccc2n1 | 1.97
11 | CCOc1ccc(NC(=O)CN2CCN(CC(=O)Nc3ccc4c(c3)OCO4)CC2)cc1 | -76.1
12 | Clc1ccc(OCCn2c(-c3ccco3)nc3ccccc32)cc1 | -26.7
13 | CCc1noc(C)c1C(=O)N(C)CC(=O)Nc1ccc(OC)cc1 | 4.33
14 | O=C(CC1C(=O)NCCN1C(=O)Nc1ccc(Cl)cc1)Nc1ccc(F)cc1 (centres unmarked) | -32.9
15 | C=C1CCN([C@H](C(=O)OCc2ccc(C)cc2)C(C)C)S(=O)(=O)c2ccccc21 | -7.72
16 | CCc1ccccc1NC(=O)CNC(=O)CNC(=O)C1CCCCC1 | 12.7
17 | COC(=O)C1=C(N)OC2=C(C(=O)CC(C)(C)C2)C1c1ccoc1 (centres unmarked) | -6.08
18 | O=C(COc1ccc(Br)cc1Br)NC1CCCC1 | 12.9
19 | CN(C)S(=O)(=O)c1ccc(N)c([N+](=O)[O-])c1 | 15

Row | Compound | hERG current change (%, negative = inhibition) at 10uM [%]
20 | O=C(NCc1cccc(Br)c1)C1CC2Cn3c(nc4ccccc43)C2N1Cc1ccccc1 (centres unmarked) | -74.2
21 | CC1(C)Cc2cccc(C(=O)Nc3ccc(F)cc3F)c2O1 | 21.6
22 | Cc1nn(Cc2c(Cl)cccc2Cl)c(Cl)c1/C=N/NC(=O)c1cccnc1 | 8.86
23 | CCOc1cc(N2CCOCC2)c(OCC)cc1NC(=O)CN1CCCC(C)C1 (centres unmarked) | -25.8
24 | O=C(C1CCC(=O)N1C1CCCCC1)N1CCN(c2ccc(F)cc2)CC1 (centres unmarked) | -14.1
25 | Nc1nc2ccccc2[nH]1 | 15.9
26 | O=C(CN1CCOCC1)Nc1ccccc1Cl | -8.73
27 | CCCc1nc2ccccc2c(=O)n1/N=C/c1ccc(O)cc1 | 14.5
28 | CC(C)(C)N(NC(=O)c1ccccc1)C(=O)c1ccccc1 | -1.27
29 | O=C(COc1ccccc1Cl)Nc1cc(NC(=O)COc2ccccc2Cl)cc(C(=O)O)c1 | -0.786
30 | Nc1nc2cc(S(=O)(=O)NC3=NCCCCC3)ccc2s1 | 7.55
31 | COc1cccc(C(=O)C2CCCN(Cc3ccc4nsnc4c3)C2)c1 (centres unmarked) | -26
32 | O=c1[nH]ncn2cccc12 | 24.1
33 | O=C(C1=C(O)C(=O)N(c2nc3ccc(Cl)cc3s2)C1c1ccco1)c1ccco1 (centres unmarked) | -3.5
34 | CC(C)CN(C(=O)CN1CCN(c2ccc(F)cc2)CC1)c1c(N)n(CC(C)C)c(=O)[nH]c1=O | 0.793
35 | Cc1ccc(Cn2c(NC(=O)c3ccco3)nc3ccccc32)cc1 | 19.8
36 | O=C(CNC(=O)c1ccccc1Br)N/N=C\c1cc([N+](=O)[O-])cc(Br)c1O | -13.8
37 | Nc1cc(=O)[nH]c(SCC(=O)c2ccc(O)cc2O)n1 | 17.4
38 | Cc1ccc2nc(C)c(CN3CCN(c4ccc([N+](=O)[O-])cc4Cl)CC3)n2c1 | -69.3

Row | Compound | hERG current change (%, negative = inhibition) at 10uM [%]
39 | COc1ccc(-n2c(COc3cccc(C)c3)n[nH]c2=S)cc1 | 13.8
40 | Cc1cccc(N(CC(=O)NC(C)(C)C)C(=O)CNC(=O)c2cccs2)c1C | 8.9
41 | N#Cc1c(-c2ccncc2)cc(-c2ccc(F)cc2)nc1N | -8.81
42 | CCOC(=O)c1c(C)n(C)c2ccc(OCC(O)CNC(CC)CO)cc12 (centres unmarked) | -7.11
43 | O=C(Nc1ccc(F)cc1)c1nc[nH]c1C(=O)Nc1ccc([N+](=O)[O-])cc1 | 17.6
44 | Cc1c2cnn(CC(=O)Nc3c(F)c(F)cc(F)c3F)c(=O)c2c(C)n1Cc1ccccc1F | -10.1
45 | CC(C)c1nc2cc(C(=O)N3CCN(c4cnccn4)CC3)ccc2o1 | 8.52
46 | O=S(=O)(Nc1ccc(Cl)cc1)c1cccc2cccnc12 | 12.8
47 | Cc1ccc(-c2cc(C(=O)NCc3ccco3)c3ccccc3n2)s1 | -15
48 | COc1cccc(/C=N/n2c(=S)n(C)c3ccccc32)c1OC | 5.65
49 | COc1ccc(-c2nnc(SC(C)C(=O)Nc3cccc(Cl)c3)o2)cc1 (centres unmarked) | -7
50 | NC(=O)c1ccccc1N/C=C/C(=O)c1ccccc1 | 0.363
51 | Cn1cc(/C=C(\NC(=O)c2ccccc2)C(=O)NCCN2CCOCC2)c2ccccc21 | 4.78
52 | O=C(OCC(=O)N(C1CCCCC1)C1CCCCC1)c1ccncc1 | -34.6
53 | C/C(=N\NC(=O)CNC(=O)C(c1ccccc1)c1ccccc1)c1ccc(C)cc1 | -9.33
54 | CCOC(=O)c1c(/N=C/C2=C(O)CCCC2=O)sc(C)c1C | -10.7
55 | O=C(Cn1c(=O)n(-c2cccc(C(F)(F)F)c2)c(=O)c2sccc21)NCC1CCCO1 (centres unmarked) | 24.9
56 | Cc1c(NC(=O)COC(=O)Cn2cc(C(F)(F)F)ccc2=O)cccc1[N+](=O)[O-] | -10
